Hit rate of the full screen: of about 45,000 compounds, about 65 (0.1%) were called active. Calls follow the shape of the dose curve; as a rule, active = well fitted activation curve with a large enough effect; inconclusive = small, poorly fitted or top-dose-only effect; inactive = no such curve, though single readings can be large or run the other way. The list shows a part of the results.
Potency is read from the fitted curve at half-maximal effect.

Sequence of UniProt P54803 (P54803 whole entry, looked up): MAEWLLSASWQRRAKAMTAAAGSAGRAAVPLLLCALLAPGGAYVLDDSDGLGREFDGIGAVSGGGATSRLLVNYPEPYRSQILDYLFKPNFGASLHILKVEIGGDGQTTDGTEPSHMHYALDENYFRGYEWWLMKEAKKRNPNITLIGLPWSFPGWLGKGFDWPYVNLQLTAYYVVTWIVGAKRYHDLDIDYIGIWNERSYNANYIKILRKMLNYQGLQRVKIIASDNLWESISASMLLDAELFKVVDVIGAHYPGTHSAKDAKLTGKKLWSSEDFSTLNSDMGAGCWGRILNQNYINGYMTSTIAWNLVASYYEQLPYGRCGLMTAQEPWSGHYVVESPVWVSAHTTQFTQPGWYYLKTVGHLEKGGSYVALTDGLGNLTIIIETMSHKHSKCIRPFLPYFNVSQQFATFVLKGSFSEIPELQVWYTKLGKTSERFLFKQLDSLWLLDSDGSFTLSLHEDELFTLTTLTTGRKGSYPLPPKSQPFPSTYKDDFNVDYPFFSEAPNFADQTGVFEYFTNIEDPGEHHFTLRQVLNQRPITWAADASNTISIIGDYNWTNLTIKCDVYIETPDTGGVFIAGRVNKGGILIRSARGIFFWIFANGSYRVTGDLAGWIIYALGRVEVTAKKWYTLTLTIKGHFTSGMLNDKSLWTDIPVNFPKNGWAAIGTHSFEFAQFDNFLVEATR

This experiment has as its target Galactocerebrosidase (Homo sapiens) (UniProt P54803). Briefly: A Novel Cell-Based Assay to Identify Small Molecules for B -Galactocerebrosidase. Also: nearly all actives have a fitted effect of over 65% in size. As to activation: 0% is about no effect. To be noted: 145M-Twi-hGALC-G270D cells (Twitcher mouse brain line with human GALC G270D), HMU-beta-Gal fluorescence, 48 h; series mostly up to 57.5 µM; activation: at the top concentration. The gist of the method:
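Brain-derived Twitcher mouse 145M-Twi cells stably expressing human GALC-G270D or wild-type GALC, treated live, then residual GALC activity read by fluorescence of HMU-b-Gal substrate (0.1 mM final) in citrate-phosphate buffer pH 5.2 with sodium taurocholate. Signal increase indicates enhancement.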
For `CC(CCO)Nc1nc2c(c(=O)n(C)c(=O)n2C)n1Cc1ccc(Br)cc1` (stereo unspecified), the Potency was active: 22.4 µM. `COc1ccc(-c2n[nH]c3c2C(c2ccc(Cl)cc2Cl)NC3=O)cc1` (stereo unspecified): the “activation” value was inactive: -4.39%. In the case of `COc1ccc(-n2c(=O)c3c(c4cc(OC)ccc4n3C)n(CC(=O)NCC3CCCO3)c2=O)cc1` (stereo unspecified), the “activation” value was inactive: 23.5%. `CCN(CCCNC(=O)c1ccc(Sc2ccc(C)cc2)c(NC(C)=O)c1)c1cccc(C)c1`: the “activation” value was inactive: -9.87%.

Take `CCOC(=O)c1ccc(-c2ccc(/C=C(\C#N)C(=O)Nc3c(C)cccc3Cl)o2)cc1`: the “activation” value was inactive: -7.14%. For the molecule `COc1cc(Cl)c(NC(=O)c2cc(S(=O)(=O)N3CCOCC3)cn2C)c(OC)c1`, the “activation” value is inactive: 1.86%. Still for that read-out and setting: the figure for `CCc1nn2c(-c3ccco3)ccnc2c1-c1ccc(F)cc1` is inactive: -1.72%; for `C#CCSc1nc2sc3c(c2c(=O)n1-c1cccc(OC)c1)CCN(C(C)=O)C3` it is inactive: -10.2%. As to `CCOC(=O)CNC(c1ccccc1)c1cc(Br)ccc1NC(=O)c1ccc(Cl)cc1` (stereo unspecified), the “activation” value was inactive: -18.8%.

As to `CC(=O)c1c(C)oc2c(Cl)cc(NS(=O)(=O)c3cc(C)c(C)cc3C)cc12`, the “activation” value is inactive: -19.8%. Take `CC(C)(C)NC(=O)Cn1cc(S(=O)(=O)Cc2ccc(F)cc2)c2ccccc21`: the “activation” value was inactive: -10.2%. On the same count and under the same terms, the same measure for `COCCn1c(SCC(=O)c2ccc(OC)cc2)nc2cc(C(=O)NC3CCCC3)ccc2c1=O`: inactive: -12.2%.

In the case of `CCCOc1ccc(-c2nonc2NC(=O)COc2ccc(C)cc2)cc1OCCC`, the “activation” value is inactive: 4.69%.

For `CCC(=O)Nc1ccc2nc(SCCOc3cccc(C)c3)sc2c1`, the “activation” value is inactive: -19.6%. For `Cc1ccc(S(=O)(=O)c2nnn(CC(=O)Nc3ccccc3C)c2N)cc1C`, the “activation” value is inactive: -14.1%. On the same count and under the same terms, the figure for `CCOc1ccc(OCC)c(NC(=O)c2cnc3c(-c4ccccc4)c(C)nn3c2C)c1` is inactive: -0.474%; for `CC(C)Cc1ccc(S(=O)(=O)Nc2ccc3[nH]c(=O)[nH]c3c2)cc1` it is inactive: -12.2%. The same measure, in the same setting: the figure for `O=C(NCc1ccccc1F)C(=O)NCC(c1cccs1)S(=O)(=O)c1cccs1` (stereo unspecified) is inactive: -0.981%. Same read-out and setting: the figure for `O=C(CCC1N=C2c3ccccc3N=C(SCc3ccccc3Cl)N2C1=O)NCc1cccs1` (stereo unspecified) is inactive: -13.3%; for `COc1ccccc1OCC(=O)NCC1(N2CCOCC2)CCCCC1` it is inactive: -20.7%.

As for `O=C(NCc1cccc(Cl)c1)c1ccc(CS(=O)Cc2ccccc2Cl)o1` (stereo unspecified), the “activation” value was inactive: -14.4%. `Cc1ccc(-n2c(=O)c3c(c4cc(C)ccc4n3C)n(CC(=O)NCCC3=CCCCC3)c2=O)cc1`: the “activation” value was inactive: -5.88%. Same read-out and setting: the same measure for `COC(=O)c1cc2oc(C)cc2n1Cc1cccc(Cl)c1`: inactive: -7.39%; for `O=c1c2oc3ccccc3c2n(Cc2cccc(Cl)c2)c(=O)n1Cc1ccc2c(c1)OCO2`: inactive: -8.13%.

For `CCOc1ccc2nc(N(Cc3cccnc3)C(=O)c3ccc4c(c3)OCCO4)sc2c1`, the “activation” value was inactive: -2.59%. The same measure, in the same setting: the same measure for `COC(=O)c1cc2sc(C)cc2n1Cc1ccc(F)cc1Cl`: inactive: -6.65%.

On to `COc1cccc(CSc2nc3cc(OC)c(OC)cc3c3nc(CCn4nc(C)cc4C)nn23)c1`, for which the “activation” value is inactive: 5.67%. In the case of `O=C(NC1(C(F)(F)F)NC(=O)N(CCc2ccccc2)C1=O)c1ccccc1F` (stereo unspecified), the “activation” value is inactive: -12.2%.

Regarding `O=S(=O)(c1ccc(Cl)cc1)c1nc(-c2ccccc2Br)oc1N1CCOCC1`, the “activation” value was inactive: -16.5%. For `COc1ccccc1CNC(=O)Cn1c(=O)ccc2cc(S(=O)(=O)N3CCC(C)CC3)ccc21`, the “activation” value is inactive: -14%. `CC1Cc2ccccc2N1S(=O)(=O)c1nnc(NC(=O)c2ccccc2Br)s1` (stereo unspecified): the “activation” value was inactive: -12.3%. Regarding `COc1ccc(-c2cn3nc(N4CCCC(C(=O)Nc5ccc(Cl)cc5C)C4)sc3n2)cc1` (stereo unspecified), the “activation” value is inactive: -4.12%. In the case of `Cc1[nH]c2ccc(F)cc2c1CCNC(=O)c1cc2cc(Cl)ccc2oc1=O`, the “activation” value is inactive: -3.75%. Same read-out and setting: the same measure for `COc1ccc(S(=O)(=O)NCC(c2cccs2)S(=O)(=O)c2ccc(C)cc2)cc1F` (stereo unspecified): inactive: -3.23%; for `CC(C)Oc1ccc(C(=O)Nc2ccc3oc(-c4ccncc4)nc3c2)cc1`: inactive: 3.77%.

Regarding `Cn1c(=O)c2c(nc(NCCc3ccccc3)n2Cc2cccc(Br)c2)n(C)c1=O`, the “activation” value was inactive: -15.1%. Same read-out and setting: the same measure for `CCCCN(CC)CCCNC(=O)c1cn(CC(C)C)c(=O)c2c1c1ccccc1n2C`: inactive: -6.33%; for `O=c1n(Cc2ccc(F)cc2Cl)c2ccccc2c2nc(-c3ccccc3)nn12`: inactive: -14.4%. Take `COc1ccc2c(c1)CCc1c(C(=O)Nc3c(C)nn(Cc4ccccc4Cl)c3C)noc1-2`: the “activation” value was inactive: -1.76%. As for `Cc1ccc(CCNC(=O)c2nnc(Cc3cccc(F)c3)o2)cc1`, the “activation” value was inactive: -14.4%. As for `COc1ccc(Cl)cc1NS(=O)(=O)c1c(C)nc2scc(C)n2c1=O`, the “activation” value was inactive: -9.63%. Still for that read-out and setting: the figure for `Cc1ccc(CNC(=O)c2c[nH]c3ccc(S(=O)(=O)Nc4ccc(C(C)C)cc4)cc3c2=O)cc1` is inactive: -3.3%; for `COCCn1c(CNC(=O)c2cc([N+](=O)[O-])ccc2Cl)nc2cccnc21` it is inactive: 8.64%; for `COc1cc(NC(=O)C(NC(=O)C2CCC(C)CC2)C(C)C)cc(OC)c1OC` (stereo unspecified) it is inactive: -15.6%. In the case of `COc1ccc(NC(=O)Cn2cnc3c(nc4n3CCCCC4)c2=O)c(OC)c1`, the “activation” value is inactive: -21%. Turning to `COCCCn1c(=N)c(C(=O)NC2CCCCC2)cc2c(=O)n3ccccc3nc21`, the “activation” value is inactive: -14.7%.

As for `COc1ccc(C(=O)Nc2onc3c2CCCC3)cc1`, the “activation” value is inactive: -2.33%. Regarding `Cc1c(CNC2CCCCCC2)c(C(=O)O)c(C)n1Cc1c(F)cccc1Cl`, the “activation” value is inactive: -10.2%. Still for that read-out and setting: the same measure for `COc1ccc(C2=CC(c3ccc(N(C)C)cc3)n3nnnc3N2)cc1` (stereo unspecified): inactive: -2.44%; for `CCOC(=O)c1ccccc1NC(=O)Cc1c(C(=O)O)c(C)cn1C`: inactive: -3.85%; for `Cc1ccc(-n2ncc(C(=O)N3CCN(c4ccccn4)CC3)c2C2CCN(C(=O)OC(C)(C)C)CC2)cc1C`: inactive: -12.6%. Still for that read-out and setting: the figure for `Cc1cccc(CS(=O)(=O)CC2Nc3ccc(C(=O)NCc4ccccc4)cc3NC2=O)c1` (stereo unspecified) is inactive: -5.81%. Still for that read-out and setting: the same measure for `COc1ccc(N2CCN(C(=O)Cn3cnc4sc(C)c(S(=O)(=O)N5CCC(C)CC5)c4c3=O)CC2)cc1`: inactive: -13.9%; for `CCOC(=O)c1ccc(N2C(=O)c3n[nH]c(C)c3C2c2ccc(O)c(OC)c2)cc1` (stereo unspecified): inactive: -11.7%; for `O=C(Nc1cc(-c2nc3ccccc3o2)ccc1Cl)c1cccc2c(Cl)cccc12`: inactive: -28.4%. Consider `CCOC(=O)c1ccc(NC(=O)Cc2coc3cc(C)cc(C)c23)cc1`, for which the “activation” value is inactive: -13.4%. Take `Cc1ccc(NC(=O)Cn2c(=O)n(Cc3ccc4c(c3)OCO4)c(=O)c3ccc(C(=O)NC4CCCCC4)cc32)cc1`: the “activation” value was inactive: -13.7%. For the molecule `Cc1cccc(NC(=O)CSc2nc(=O)n(CCN3CCOCC3)c3c2CCC3)c1C`, the “activation” value was inactive: -15.6%. In the case of `C=CCN1C[C@H](C(=O)N(CCCN(C)C)C(=O)NCC)C[C@@H]2c3cccc4[nH]cc(c34)C[C@H]21`, the “activation” value is inactive: -17.1%.

As to `Cc1cccc(Cn2nnc3c(=O)[nH]c(C4CCN(C(=O)c5ccccc5F)CC4)nc32)c1`, the “activation” value was inactive: -17%. For `CCCC(=O)NCc1nc2cccnc2n1Cc1ccc(F)cc1`, the “activation” value is inactive: 14.1%. Still for that read-out and setting: the figure for `Cc1cc([N+](=O)[O-])ccc1NC(=O)CSc1nccn1C` is inactive: -1.84%; for `O=C(CSc1cn(CC(=O)N2CCOCC2)c2ccccc12)Nc1ccccc1C(F)(F)F` it is inactive: -12.7%; for `COc1ccc(CNC(=O)c2cnc(N3CCCC3)nc2C)cc1` it is inactive: -0.767%. Same read-out and setting: the same measure for `COc1ccc(S(=O)(=O)NCc2cccn2Cc2cccc(C)c2)cc1OC`: inactive: -11.9%. With `CCCCc1nn2c(=O)cc(COC(=O)c3ccccc3NC(=O)C3CCCCC3)nc2s1`, the “activation” value is inactive: -12.9%. Same read-out and setting: the figure for `CCOc1ccc(NC(=O)c2cc3c(=O)n4cccc(C)c4nc3s2)cc1` is inactive: -17.1%.

Regarding `CCN(C(=O)CSc1nnc(C)n2c1cc1occc12)c1ccccc1`, the “activation” value is inactive: -10%. Regarding `Cc1ccccc1C(=O)Nc1nc2c(s1)CC(C(C)(C)C)CC2` (stereo unspecified), the “activation” value is inactive: -9.84%. On the same count and under the same terms, the same measure for `COc1ccc2c(c1)c1c(c(=O)n(-c3cccc(Cl)c3)c(=O)n1C)n2C`: inactive: -6.44%. For the molecule `COc1ccc(-c2c(C)c3ccc(O)c(CN4CCN(C)CC4)c3oc2=O)cc1OC`, the “activation” value was inactive: -9.31%. For `CCOC(=O)CSc1nc2c([nH]c3ccccc32)c(=O)n1-c1ccc(OCC)cc1`, the “activation” value is inactive: -13.3%. The same measure, in the same setting: the same measure for `COc1ccc(CSc2nc3ccncc3n2Cc2nc(-c3ccc(OC)c(OC)c3)oc2C)cc1`: inactive: -14.4%; for `Cc1cccc2sc(N(Cc3cccnc3)C(=O)C3CCCCC3)nc12`: inactive: -12.9%; for `COc1ccc(S(=O)(=O)c2cn(CC(=O)Nc3ccccc3)c3ccc(Cl)cc3c2=O)cc1`: inactive: -7.7%. As for `O=C(Cn1cc(SCc2cccc(C(F)(F)F)c2)c2ccccc21)N1CCCCCC1`, the “activation” value is inactive: -15.2%. Same read-out and setting: the same measure for `CN1C(=O)C2CCCCN2c2ccc(C(=O)NCc3ccccc3Br)cc21` (stereo unspecified): inactive: -18%; for `COc1cc(NC(=O)CCc2c(C)nc3c(c(C)nn3-c3ccccc3)c2C)cc(OC)c1OC`: inactive: -35.5%. Still for that read-out and setting: the figure for `COc1cccc2cc(-c3nc(-c4cccs4)no3)c(=O)oc12` is inactive: -11.5%; for `O=C(CSc1nc2c([nH]c3ccccc32)c(=O)n1-c1ccc(F)cc1)N1CCCCCC1` it is inactive: -12.2%; for `COc1ccccc1CNC(=O)Nc1ccc2c(c1)N(C)C(=O)c1ccccc1S2` it is inactive: 0.0212%.

Take `Clc1cccc(-c2noc3ncnc(NC4CCCCC4)c23)c1`: the “activation” value is inactive: -42.8%. On the same count and under the same terms, the same measure for `COc1ccc(Br)cc1CNC(=O)CCC(=O)N1CCSc2ccccc21`: inactive: -6.36%; for `O=C(Nc1ccc(Br)cc1)c1ccc(Br)c(S(=O)(=O)NCc2ccccc2)c1`: inactive: 11.2%. As to `CCOc1ccc(CNC(=O)Cn2nc(C)c3sc4ccccc4c3c2=O)cc1`, the “activation” value was inactive: 0.298%. Consider `CCOC(=O)c1c(C)c(C(=O)NCCc2ccc(OC)cc2)c(C)n1CC`, for which the “activation” value is inactive: -6.92%. On the same count and under the same terms, the figure for `Cc1ccc(NS(=O)(=O)c2c(C(=O)N3CCCCCC3)c(C)n(C)c2C)cc1F` is inactive: -16.6%.

For `COc1cccc(-c2cc(C(=O)NCCc3ccc(C)cc3)[nH]n2)c1`, the “activation” value is inactive: -13.1%. As for `CC(=O)c1c(C)n(-c2cccc(C)c2)c2ccc(OC(=O)COc3ccccc3)cc12`, the “activation” value was inactive: -31.1%. Same read-out and setting: the same measure for `CCN(Cc1ccccc1)C(=O)Nc1ccc2c(c1)N(C)C(=O)c1ccccc1S2`: inactive: -21.7%; for `Cc1ccc(C(=O)Nc2ccc3c(c2)N(C)C(=O)c2ccccc2S3)cc1F`: inactive: -12.5%. The same measure, in the same setting: the figure for `COc1ccc(C)cc1NC(=O)CN1C(=O)CCc2cc(S(=O)(=O)N3CCOCC3)ccc21` is inactive: -22.1%. Take `Cc1ccc(N(C)S(=O)(=O)c2ccc3[nH]cc(C(=O)O)c(=O)c3c2)cc1C`: the “activation” value is inactive: -0.685%.

As to `C=Cc1ccc(Cn2c(=O)n(-c3ccccc3C)c(=O)c3c4c(sc32)CN(C(C)=O)CC4)cc1`, the “activation” value was inactive: -26.2%. The same measure, in the same setting: the same measure for `CCc1nn(CC(=O)Nc2c(C)cc(C)cc2C)c(=O)c2cc3sccc3n12`: inactive: -19%. Still for that read-out and setting: the figure for `CC(=O)c1ccc(NC(=O)CSc2nc(-c3ccccc3F)nc3c2c(=O)n(C)c(=O)n3C)cc1` is inactive: -7.96%.
